Reference: the supplement of paper PMC9151546
Many values rest on one well or one pass, so single values are uncertain.

What was measured:
CHO-K1 [1] = experiment: micronucleus frequency (% of nucleated events); higher = more micronuclei (genotoxic)
CHO-K1 [2] = experiment: hypodiploid nuclei frequency (% of nucleated events); higher = more hypodiploid events (aneugenic)
CHO-K1 [3] = experiment: relative survival (nuclei to bead ratio vs DMSO control) (% of vehicle control); higher = more surviving cells
Experimental: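 Flow-cytometric in vitro micronucleus assay (Litron MicroFlow) in CHO-K1 cells in 96-well plates, 19 concentrations (4.5-200 µM, n=1 per concentration). Without S9, cells were exposed for 24 h and sampled at 48 h. With Aroclor 1254-induced rat liver S9, cells were exposed for 3-4 h and sampled at 27-28 h. Read-outs are %MN and %hypodiploid nuclei relative to nucleated events, and relative survival as the nuclei-to-bead ratio versus the 1% DMSO vehicle control (x100).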
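For hypodiploid nuclei frequency (% of nucleated events) in this document: hypodiploid nuclei gated on a flow cytometer with 488 nm excitation after SYTOX Green staining, cultures at 37 °C, positive controls vinblastine without S9 and cyclophosphamide with S9.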
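For micronucleus frequency (% of nucleated events) in this document: cells lysed with nuclei stained by SYTOX Green, then micronucleus-gated events counted against nucleated events by flow cytometry with 488 nm excitation.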
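For relative survival (nuclei to bead ratio vs DMSO control) in this document: Lysed-cell nuclei stained with SYTOX Green and counted against counting beads by flow cytometry at 488 nm excitation, with vinblastine (no S9) and cyclophosphamide (plus S9) as positive controls.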

Cc1cccc2ccccc12 [1-Methylnaphthalene]
Conditions | hypodiploid nuclei frequency, CHO-K1 [2] [%] | micronucleus frequency, CHO-K1 [1] [%] | relative survival, CHO-K1 [3]
concentration: 4.5 (µM), S9 metabolic activation: with S9, exposure time: 3-4 hours | 0.42 | 1.54 | 111
concentration: 4.5 (µM), S9 metabolic activation: without S9, exposure time: 24 hours | 0.64 | 1.06 | 125
concentration: 5.63 (µM), S9 metabolic activation: with S9, exposure time: 3-4 hours | 0.3 | 1.16 | 130
concentration: 5.63 (µM), S9 metabolic activation: without S9, exposure time: 24 hours | 0.96 | 1 | 118
concentration: 7.04 (µM), S9 metabolic activation: with S9, exposure time: 3-4 hours | 0.18 | 0.9 | 133
concentration: 7.04 (µM), S9 metabolic activation: without S9, exposure time: 24 hours | 0.4 | 1.24 | 91.9
concentration: 8.8 (µM), S9 metabolic activation: with S9, exposure time: 3-4 hours | 0.2 | 0.62 | 147
concentration: 8.8 (µM), S9 metabolic activation: without S9, exposure time: 24 hours | 0.5 | 1.18 | 130
concentration: 11 (µM), S9 metabolic activation: with S9, exposure time: 3-4 hours | 0.28 | 1.24 | 140
concentration: 11 (µM), S9 metabolic activation: without S9, exposure time: 24 hours | 0.48 | 1.2 | 144
concentration: 13.7 (µM), S9 metabolic activation: with S9, exposure time: 3-4 hours | 0.22 | 1.24 | 137
concentration: 13.7 (µM), S9 metabolic activation: without S9, exposure time: 24 hours | 0.5 | 1.34 | 104
concentration: 17.2 (µM), S9 metabolic activation: with S9, exposure time: 3-4 hours | 0.2 | 1.38 | 166
concentration: 17.2 (µM), S9 metabolic activation: without S9, exposure time: 24 hours | 0.48 | 1.06 | 123
concentration: 21.5 (µM), S9 metabolic activation: with S9, exposure time: 3-4 hours | 0.18 | 1.28 | 144
concentration: 21.5 (µM), S9 metabolic activation: without S9, exposure time: 24 hours | 0.28 | 1.2 | 126
concentration: 26.8 (µM), S9 metabolic activation: with S9, exposure time: 3-4 hours | 0.1 | 0.9 | 150
concentration: 26.8 (µM), S9 metabolic activation: without S9, exposure time: 24 hours | 0.56 | 1.06 | 135
concentration: 33.6 (µM), S9 metabolic activation: with S9, exposure time: 3-4 hours | 0.28 | 1.06 | 143
concentration: 33.6 (µM), S9 metabolic activation: without S9, exposure time: 24 hours | 0.64 | 1.36 | 161
concentration: 41.9 (µM), S9 metabolic activation: with S9, exposure time: 3-4 hours | 0.34 | 1.18 | 119
concentration: 41.9 (µM), S9 metabolic activation: without S9, exposure time: 24 hours | 0.6 | 1.62 | 174
concentration: 52.4 (µM), S9 metabolic activation: with S9, exposure time: 3-4 hours | 0.3 | 1.2 | 121
concentration: 52.4 (µM), S9 metabolic activation: without S9, exposure time: 24 hours | 0.86 | 1.76 | 142
concentration: 65.5 (µM), S9 metabolic activation: with S9, exposure time: 3-4 hours | 0.18 | 1.18 | 125
concentration: 65.5 (µM), S9 metabolic activation: without S9, exposure time: 24 hours | 0.5 | 1.38 | 155
concentration: 81.9 (µM), S9 metabolic activation: with S9, exposure time: 3-4 hours | 0.32 | 1.1 | 103
concentration: 81.9 (µM), S9 metabolic activation: without S9, exposure time: 24 hours | 0.78 | 1.5 | 151
concentration: 102 (µM), S9 metabolic activation: with S9, exposure time: 3-4 hours | 0.18 | 1.1 | 121
concentration: 102 (µM), S9 metabolic activation: without S9, exposure time: 24 hours | 0.68 | 2.1 | 157
concentration: 128 (µM), S9 metabolic activation: with S9, exposure time: 3-4 hours | 0.14 | 1.22 | 128
concentration: 128 (µM), S9 metabolic activation: without S9, exposure time: 24 hours | 1.08 | 1.32 | 105
concentration: 160 (µM), S9 metabolic activation: with S9, exposure time: 3-4 hours | 0.14 | 1.28 | 103
concentration: 160 (µM), S9 metabolic activation: without S9, exposure time: 24 hours | 0.64 | 2.76 | 139
concentration: 200 (µM), S9 metabolic activation: with S9, exposure time: 3-4 hours | 0.38 | 2.5 | 98.3
concentration: 200 (µM), S9 metabolic activation: without S9, exposure time: 24 hours | 1.04 | 2.74 | 135

Cc1ccc2ncccc2c1 [6-Methylquinoline]
Conditions | hypodiploid nuclei frequency, CHO-K1 [2] [%] | micronucleus frequency, CHO-K1 [1] [%] | relative survival, CHO-K1 [3]
concentration: 4.5 (µM), S9 metabolic activation: with S9, exposure time: 3-4 hours | 0.08 | 0.72 | 130
concentration: 4.5 (µM), S9 metabolic activation: without S9, exposure time: 24 hours | 0.54 | 1.84 | 133
concentration: 5.63 (µM), S9 metabolic activation: with S9, exposure time: 3-4 hours | 0.18 | 0.98 | 157
concentration: 5.63 (µM), S9 metabolic activation: without S9, exposure time: 24 hours | 0.56 | 1.72 | 127
concentration: 7.04 (µM), S9 metabolic activation: with S9, exposure time: 3-4 hours | 0.18 | 1.46 | 121
concentration: 7.04 (µM), S9 metabolic activation: without S9, exposure time: 24 hours | 0.56 | 1.92 | 141
concentration: 8.8 (µM), S9 metabolic activation: with S9, exposure time: 3-4 hours | 0.1 | 0.76 | 124
concentration: 8.8 (µM), S9 metabolic activation: without S9, exposure time: 24 hours | 0.54 | 1.8 | 140
concentration: 11 (µM), S9 metabolic activation: with S9, exposure time: 3-4 hours | 0.16 | 1.06 | 117
concentration: 11 (µM), S9 metabolic activation: without S9, exposure time: 24 hours | 0.62 | 1.68 | 130
concentration: 13.7 (µM), S9 metabolic activation: with S9, exposure time: 3-4 hours | 0.26 | 1 | 121
concentration: 13.7 (µM), S9 metabolic activation: without S9, exposure time: 24 hours | 1.06 | 2.28 | 105
concentration: 17.2 (µM), S9 metabolic activation: with S9, exposure time: 3-4 hours | 0.2 | 0.9 | 128
concentration: 17.2 (µM), S9 metabolic activation: without S9, exposure time: 24 hours | 0.64 | 1.6 | 113
concentration: 21.5 (µM), S9 metabolic activation: with S9, exposure time: 3-4 hours | 0.12 | 1.4 | 118
concentration: 21.5 (µM), S9 metabolic activation: without S9, exposure time: 24 hours | 0.94 | 1.44 | 111
concentration: 26.8 (µM), S9 metabolic activation: with S9, exposure time: 3-4 hours | 0.24 | 1.26 | 154
concentration: 26.8 (µM), S9 metabolic activation: without S9, exposure time: 24 hours | 0.7 | 1.82 | 102
concentration: 33.6 (µM), S9 metabolic activation: with S9, exposure time: 3-4 hours | 0.34 | 1.52 | 118
concentration: 33.6 (µM), S9 metabolic activation: without S9, exposure time: 24 hours | 0.42 | 1.66 | 113
concentration: 41.9 (µM), S9 metabolic activation: with S9, exposure time: 3-4 hours | 0.2 | 1.36 | 117
concentration: 41.9 (µM), S9 metabolic activation: without S9, exposure time: 24 hours | 0.72 | 1.8 | 113
concentration: 52.4 (µM), S9 metabolic activation: with S9, exposure time: 3-4 hours | 0.18 | 2.06 | 94.8
concentration: 52.4 (µM), S9 metabolic activation: without S9, exposure time: 24 hours | 0.76 | 1.88 | 128
concentration: 65.5 (µM), S9 metabolic activation: with S9, exposure time: 3-4 hours | 0.25 | 3.18 | 70.3
concentration: 65.5 (µM), S9 metabolic activation: without S9, exposure time: 24 hours | 0.72 | 2.72 | 121
concentration: 81.9 (µM), S9 metabolic activation: with S9, exposure time: 3-4 hours | 0.22 | 3.97 | 56.9
concentration: 81.9 (µM), S9 metabolic activation: without S9, exposure time: 24 hours | 0.96 | 2.1 | 107
concentration: 102 (µM), S9 metabolic activation: with S9, exposure time: 3-4 hours | 0.41 | 3.36 | 82.3
concentration: 102 (µM), S9 metabolic activation: without S9, exposure time: 24 hours | 0.66 | 1.6 | 119
concentration: 128 (µM), S9 metabolic activation: with S9, exposure time: 3-4 hours | 0.38 | 3.17 | 88.7
concentration: 128 (µM), S9 metabolic activation: without S9, exposure time: 24 hours | 0.88 | 2.34 | 101
concentration: 160 (µM), S9 metabolic activation: with S9, exposure time: 3-4 hours | 0.26 | 5.65 | 59.4
concentration: 160 (µM), S9 metabolic activation: without S9, exposure time: 24 hours | 0.92 | 2.08 | 94.6
concentration: 200 (µM), S9 metabolic activation: with S9, exposure time: 3-4 hours | 0.46 | 6.71 | 55.8
concentration: 200 (µM), S9 metabolic activation: without S9, exposure time: 24 hours | 1.2 | 2.66 | 110
